Reference: a collection of fitness landscapes (doi:10.1126/science.1257360)
This is one part of the list.

B1: PhoQ; a variant is named by its letters at X, in order, P23837 (parent)
chain: MKKLLRLFFPLSLRVRFLLATAAVVLVLSLAYGMVALIGYSVSFDKTTFRLLRGESNLFYTLAKWENNKLHVELPENIDKQSPTMTLIYDENGQLLWAQRDVPWLMKMIQPDWLKSNGFHEIEADVNDTSLLLSGDHSIQQQLQEVREDDDDAEMTHSVAVNVYPATSRMPKLTIVVVDTIPVELKSSYMVWSWFIYVLSANLLLVIPLLWVAAWWSLRPIEALAKEVRELEEHNRELLNPATTRELTSLVRNLNRLLKSERERYDKYRTTLTDLTHSLKTPLXXLQXXLRSLRSEKMSVSDAEPVMLEQISRISQQIGYYLHRASMRGGTLLSRELHPVAPLLDNLTSALNKVYQRKGVNISLDISPEISFVGEQNDFVEVMGNVLDNACKYCLEFVEISARQTDEHLYIVVEDDGPGIPLSKREVIFDRGQRVDTLRPGQGVGLAVAREITEQYEGKIVAGESMLGGARMEVIFGRQHSAPKDE

Variants of: B1
Assay: enrichment ratio after two sorts for PhoP signalling (ratio (wild type AVST 3.29)); higher = more functional
Conditions: with PhoP (E. coli)

Variant | enrichment ratio
ITMS | ≤ 0.25
WTEF | ≤ 0.25
MYFL | ≤ 0.25
SYGH | ≤ 0.25
SAAF | 6.02
MVPW | ≤ 0.25
NAWF | ≤ 0.25
SCVW | 1.97
EYNV | ≤ 0.25
GTDR | ≤ 0.25
RWLH | ≤ 0.25
WNHH | ≤ 0.25
SMHY | ≤ 0.25
IPQF | ≤ 0.25
CFFL | ≤ 0.25
IEIP | ≤ 0.25
ELPC | ≤ 0.25
KRSC | ≤ 0.25
LYGR | ≤ 0.25
AHAQ | ≤ 0.25
FGNF | ≤ 0.25
QMCP | ≤ 0.25
TSEI | 15.3
TAPQ | ≤ 0.25
HTRD | ≤ 0.25

Variant | enrichment ratio
VGRA | ≤ 0.25
PVAI | ≤ 0.25
GGRE | ≤ 0.25
YVVD | ≤ 0.25
LKGT | ≤ 0.25
GQVN | 4.06
HNAY | ≤ 0.25
SYPN | 0.366
FYGA | ≤ 0.25
PDVT | ≤ 0.25
VPFF | ≤ 0.25
VMCK | ≤ 0.25
WYVL | ≤ 0.25
TQFS | 5.41
DVEK | ≤ 0.25
SVKP | ≤ 0.25
PFDD | ≤ 0.25
NELK | ≤ 0.25
MHFQ | ≤ 0.25
HGSG | ≤ 0.25
INRI | ≤ 0.25
HRCK | ≤ 0.25
ELEY | ≤ 0.25
NWSV | ≤ 0.25
TRFT | ≤ 0.25

Variant | enrichment ratio
NAGS | ≤ 0.25
VAWQ | 4
FRYI | ≤ 0.25
ETNF | ≤ 0.25
PLMG | ≤ 0.25
SMME | 14.6
YEYM | ≤ 0.25
SVFL | ≤ 0.25
ANVC | 10.9
SAAQ | ≤ 0.25
SREF | ≤ 0.25
PSGQ | ≤ 0.25
EAEV | ≤ 0.25
QSCQ | ≤ 0.25
FHLS | ≤ 0.25
MMMA | ≤ 0.25
PCYF | ≤ 0.25
PCKR | ≤ 0.25
MQDM | ≤ 0.25
HTYA | ≤ 0.25
WAVL | ≤ 0.25
TCTV | 12.6
VGPT | ≤ 0.25
AQYI | ≤ 0.25
DTGY | ≤ 0.25

Variant | enrichment ratio
FNTG | ≤ 0.25
GEGN | ≤ 0.25
VTPC | ≤ 0.25
PDGT | ≤ 0.25
ESLY | ≤ 0.25
NWMR | ≤ 0.25
YWDN | ≤ 0.25
YHRQ | ≤ 0.25
QFLE | ≤ 0.25
FKLL | 4.97
EFCD | ≤ 0.25
ATYW | ≤ 0.25
LMVQ | ≤ 0.25
MQYG | 4.8
DEAF | ≤ 0.25
PYTG | ≤ 0.25
MICH | 2.87
ARLV | 3.4
PQHE | ≤ 0.25
IMSF | ≤ 0.25
NEQM | ≤ 0.25
SCCG | 14.3
